According to patent publication US20220242948A1 (CARTEXELL, published 2022):

Assays:
[1] = biological target: T1, human L1CAM (hL1CAM, R&D system, Cat No.777-NC) (human, UniProt P32004 20-1120); test: soluble ELISA, plate coated with hL1CAM, purified scFv titrated, HRP-anti-StrepMAB (curve of FIG. 7B; R2 0.992)
T1 construct: Bought protein; also called antigen hL1CAM
Method: (§1) Specifically, the antigen mL1CAM protein or antigen hL1CAM protein was added to 96-well plates, incubated at 4° C. overnight, and then blocked with 2% MPBS at room temperature for 1 hour. Then, the purified anti-L1CAM scFv antibody protein was added. After incubation at room temperature for 90 minutes, HRP-anti-StrepMAB (IBA, Cat No. 2-1509-001) was diluted in 2% MPBS to 1:5000 and added. After incubation at room temperature for 1 hour, TMB substrate (Sigma, Cat No. T0440) and 2N H₂SO₄ (Merck, Cat No. 100731) were sequentially added, and the absorbance (OD) at 450 nm was measured. […] When the binding affinity of four types of cross-reactive clones was synthetically compared for each L1CAM, the binding affinity was high in the order of H8>E1>C9>E9.

[2] = biological target: T1, human L1CAM (hL1CAM, R&D system, Cat …); test: soluble ELISA, plate coated with hL1CAM, purified scFv titrated, HRP-anti-StrepMAB (curve of FIG. 7B, which shows no plateau; R2 1.000)
Method: as §1

T1 sequence (P32004 20-1120 limits assumed): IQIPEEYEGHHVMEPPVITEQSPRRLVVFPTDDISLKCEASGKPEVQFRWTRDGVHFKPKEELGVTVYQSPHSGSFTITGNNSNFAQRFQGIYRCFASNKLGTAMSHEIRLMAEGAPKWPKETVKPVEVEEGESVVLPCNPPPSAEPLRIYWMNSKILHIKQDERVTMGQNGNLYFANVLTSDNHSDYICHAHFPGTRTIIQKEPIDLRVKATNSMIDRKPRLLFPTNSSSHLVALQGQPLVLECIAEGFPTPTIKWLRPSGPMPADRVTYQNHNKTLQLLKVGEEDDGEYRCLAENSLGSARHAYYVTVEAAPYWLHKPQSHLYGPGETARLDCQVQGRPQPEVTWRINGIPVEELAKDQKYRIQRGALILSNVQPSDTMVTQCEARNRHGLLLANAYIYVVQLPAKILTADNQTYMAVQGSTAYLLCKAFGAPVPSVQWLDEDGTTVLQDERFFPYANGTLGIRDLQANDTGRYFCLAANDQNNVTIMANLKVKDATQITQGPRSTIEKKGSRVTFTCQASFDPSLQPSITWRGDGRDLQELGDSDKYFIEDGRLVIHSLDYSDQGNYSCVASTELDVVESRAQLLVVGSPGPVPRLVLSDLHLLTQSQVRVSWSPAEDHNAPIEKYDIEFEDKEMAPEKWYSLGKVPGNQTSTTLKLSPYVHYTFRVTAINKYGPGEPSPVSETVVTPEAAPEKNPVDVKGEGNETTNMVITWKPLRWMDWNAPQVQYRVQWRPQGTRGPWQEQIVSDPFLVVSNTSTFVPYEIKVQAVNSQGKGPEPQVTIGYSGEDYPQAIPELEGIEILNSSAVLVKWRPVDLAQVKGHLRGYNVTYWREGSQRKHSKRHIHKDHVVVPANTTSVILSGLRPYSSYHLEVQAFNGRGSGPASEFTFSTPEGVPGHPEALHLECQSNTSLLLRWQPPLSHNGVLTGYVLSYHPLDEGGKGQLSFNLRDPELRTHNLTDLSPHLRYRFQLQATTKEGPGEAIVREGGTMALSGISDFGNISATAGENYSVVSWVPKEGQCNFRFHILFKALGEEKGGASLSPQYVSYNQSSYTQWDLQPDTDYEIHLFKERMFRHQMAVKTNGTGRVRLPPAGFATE

EC50 [1]	EC50 [2]	Binder
0.228 µM	–	mL1CAM-3R-E1 purified soluble anti-L1CAM scFv antibody protein (scFv, Expressed in E. coli (pKFAB), purified on a strep tag II column; not shown: strep tag II from the pKFAB vector) scFv: [skipping about 100 residues]DESTGLGAFDYWGQGTLVTVSSGGGGSGGGGSGGGGSDIQMTQSPSSLSASVGDRVTITCRASQSISNYLNWYQQKPGKAPKLLIYAASNLQSGVPSRFSGSGSGTDFTLTISSLQPEDFATYYCQQSYSFPWTFGQGTKVEIK
–	6.06 µM	mL1CAM-3R-C9 purified soluble anti-L1CAM scFv antibody protein (scFv, Expressed in E. coli (pKFAB), purified on a strep tag II column; not shown: strep tag II from the pKFAB vector) scFv: [skipping about 100 residues]DEGSGLGAFDIWGQGTLVTVSSGGGGSGGGGSGGGGSDIQMTQSPSSLSASVGDRVTITCRASQSISRYLNWYQQKPGKAPKLLIYAASNLQSGVPSRFSGSGSGTDFTLTISSLQPEDFATYYCQQSYSFPWTFGQGTKVEIK
